# The whole screen tested about 310,000 compounds, of which about 2,200 (0.71%) showed an effect of 50% or more. Effects have a minus sign here. Some of the results follow.
# Biological target: human ether-à-go-go-related gene (hERG) potassium channel (human, UniProt Q12809)
# Test: primary screen, population patch clamp on CHO cells stably expressing hERG
# human ether-à-go-go-related gene (hERG) potassium channel, sequence (Q12809 whole entry, looked up): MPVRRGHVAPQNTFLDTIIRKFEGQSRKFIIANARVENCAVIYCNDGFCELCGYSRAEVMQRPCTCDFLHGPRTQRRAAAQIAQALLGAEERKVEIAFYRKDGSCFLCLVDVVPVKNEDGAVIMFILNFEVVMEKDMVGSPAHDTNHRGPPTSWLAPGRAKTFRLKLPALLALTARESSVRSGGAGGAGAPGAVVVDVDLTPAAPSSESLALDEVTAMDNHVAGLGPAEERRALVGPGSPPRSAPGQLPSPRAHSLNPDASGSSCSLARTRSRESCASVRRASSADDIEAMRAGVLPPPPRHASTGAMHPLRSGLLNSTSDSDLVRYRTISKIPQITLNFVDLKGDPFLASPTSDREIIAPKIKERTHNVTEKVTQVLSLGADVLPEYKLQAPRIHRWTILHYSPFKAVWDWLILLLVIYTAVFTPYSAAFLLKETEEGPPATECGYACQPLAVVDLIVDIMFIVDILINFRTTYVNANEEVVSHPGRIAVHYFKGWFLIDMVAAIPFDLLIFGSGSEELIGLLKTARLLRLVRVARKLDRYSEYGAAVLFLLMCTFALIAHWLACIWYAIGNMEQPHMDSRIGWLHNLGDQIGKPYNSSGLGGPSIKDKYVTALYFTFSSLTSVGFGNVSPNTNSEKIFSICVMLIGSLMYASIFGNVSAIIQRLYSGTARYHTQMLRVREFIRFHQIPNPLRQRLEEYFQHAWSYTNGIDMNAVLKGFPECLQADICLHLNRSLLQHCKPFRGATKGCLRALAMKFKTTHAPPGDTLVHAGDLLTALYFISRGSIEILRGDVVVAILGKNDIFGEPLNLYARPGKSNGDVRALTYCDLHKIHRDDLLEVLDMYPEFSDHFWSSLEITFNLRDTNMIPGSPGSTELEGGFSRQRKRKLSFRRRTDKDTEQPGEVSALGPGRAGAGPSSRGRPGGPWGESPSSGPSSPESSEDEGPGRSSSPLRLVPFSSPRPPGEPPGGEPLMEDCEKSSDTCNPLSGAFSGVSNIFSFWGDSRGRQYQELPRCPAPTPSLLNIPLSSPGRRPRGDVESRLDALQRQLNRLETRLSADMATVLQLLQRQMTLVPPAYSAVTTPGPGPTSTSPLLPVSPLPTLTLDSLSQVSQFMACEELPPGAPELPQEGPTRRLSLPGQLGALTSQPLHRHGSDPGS
row,SMILES,"hERG current change (%, negative = inhibition) at 1uM [%]"
1,CN(C)/C=C(/C(=O)c1ccc(Cl)cc1)S(=O)(=O)c1ccc(Cl)cc1,-10.9
2,CN1C(=O)CC(N2CCC(c3nc4ccccc4s3)CC2)C1=O (stereo not drawn),0.992
3,COc1ccc(-c2[nH]ncc2/C=N/NC(=O)c2cccc([N+](=O)[O-])c2)cc1OC,-25.5
4,O=C1c2ccccc2C(O)(c2ncc[nH]2)N1C1CCCCC1 (stereo not drawn),19.1
5,O=C(O)CC(C(=O)NCc1ccccc1)C1CCCO1 (stereo not drawn),-2.32
6,NS(=O)(=O)c1ccc(NC(=O)COC(=O)c2cc3ccccc3cc2O)cc1,16.3
7,CC1CCCCN1C(=O)Cn1cnc2cc([N+](=O)[O-])ccc2c1=O (stereo not drawn),11.1
8,Cc1cc([N+](=O)[O-])nn1Cc1ccc(C(=O)N/N=C/c2ccc(O)cc2O)cc1,8.48
9,CCCCCC(=O)Nc1cccc(C2=NOC3(C2)C[C@H](C(N)=O)N(C(=O)CCCCC)C3)c1 (stereo partly drawn),-41.9
10,O=C(/C=C\c1cn(-c2ccccc2)nc1-c1cccs1)N1CCOCC1,4.61
11,Fc1ccccc1/C=N/n1c(COc2ccccc2)n[nH]c1=S,6.92
12,COc1ccc(CCNCC(O)COc2cccc(Br)c2)cc1OC (stereo not drawn),-39.5
13,CC(=O)N1CCN(c2ccc(NC(=O)c3ccccc3)cc2)CC1,4.75
14,COCc1nnc(NC(=O)c2cc(Cl)ccc2OC)s1,4.12
15,CCN(CC)CCn1c(-c2ccc(C)cc2)nc(=S)c2c1CC(C)(C)OC2,13.2
16,O=C1CCCc2c1cc(C(=O)Nc1ccc(Cl)cn1)c(=O)n2-c1ccccc1,2.75
17,CCOC(=O)CCCNC(=O)COC(=O)[C@@H]1CCCN1S(=O)(=O)c1ccc(Cl)cc1,13.3
18,COc1ccc(OC)c(C2=NOC(C(=O)Nc3cc(C)nn3-c3ccccc3)C2)c1 (stereo not drawn),11.3
19,CC(=O)N1CCN(c2ccccc2NC(=S)NC(=O)c2cc3ccccc3o2)CC1,16.7

row,SMILES,"hERG current change (%, negative = inhibition) at 1uM [%]"
1,O=C(C1CCCCC1)N1CCN(C(=O)C2CCCCC2)CC1,-2.29
2,CC(=O)n1cc(N(C(=O)CCl)c2ccc(Cl)cc2)c2ccccc21,13.9
3,CCc1ccc(N2CC(C(=O)N3CCCCCC3)CC2=O)cc1 (stereo not drawn),7.72
4,O=C(NCCc1ccccc1)C(=O)Nc1ccc2c(c1)OCCO2,17
5,Cc1ccc(CC2C(=O)N(c3ccc(F)cc3)C(=O)C2C)cc1 (stereo not drawn),12
6,Cc1cc(C(=O)NC2CCC(C)CC2)c(C)o1 (stereo not drawn),7.39
7,COc1ccc(Cc2c(O)nc(SCC(C)C)[nH]c2=O)cc1,15.2
8,CC(C)c1ccc(NS(=O)(=O)c2ccc(-n3cccn3)cc2)cc1,11.7
9,Fc1ccc(NC(=S)NCCc2ccccc2)c(F)c1F,9.26
10,CCn1c(C)nc2cc(S(=O)(=O)C(F)(F)F)ccc21,8.5
11,CCc1ccccc1-n1c(SCC(=O)NC)nnc1-c1ccco1,-1.04
12,CCc1cc(=O)oc2c3c(cc(OCC(=O)NCCCCCC(=O)O)c12)OC(C)(C)CC3,10.8
13,Cc1cccc(NC(=O)c2cc(NC(=O)c3ccco3)ccc2Cl)n1,0.516
14,CCS(=O)(=O)N1Cc2ccccc2CC1C(=O)NCCc1c[nH]c2ccccc12 (stereo not drawn),11.2
15,c1coc(CSSCc2ccco2)c1,12.7
16,CCC(=O)NCCCCNC(=O)CC,19
17,CN(CCC#N)C(=O)COC(=O)c1nn(-c2ccccc2)c(=O)c2ccccc12,16.2
18,Cc1cc(C(F)F)n2ncc(C(=O)NCc3ccc(F)cc3)c2n1,3.64
19,COc1cccc(C2=NNC(=NCc3ccccc3)SC2)c1,-33.8

row,SMILES,"hERG current change (%, negative = inhibition) at 1uM [%]"
1,O=C(NC1CCCCC1)C(c1ccc(F)cc1)N(C(=O)Cc1ccsc1)c1ccc(F)cc1 (stereo not drawn),1.07
2,CCOc1cc(C)c(Cl)cc1S(=O)(=O)NCc1ccc2c(c1)OCO2,3.68
3,Cc1c(C(=O)N/N=C/c2cccs2)nc2ccccn12,12.4
4,COc1ccc(NC(=O)C2CCC(CNc3c(N4CCC(C)CC4)c(=O)c3=O)CC2)cc1OC (stereo not drawn),25.4
5,O=C(N/N=C/c1cccs1)c1cc(-c2cccc3ccccc23)n[nH]1,10
6,Cc1nn(-c2ccccc2)nc1CNS(C)(=O)=O,7.31
7,COc1cc(NC(=O)c2ccc(F)cc2)ccc1NC(=O)c1cc2ccccc2o1,14
8,CCCNc1sc(S(=O)(=O)CCC)nc1S(=O)(=O)c1ccc(C)cc1,2.89
9,CCOc1ccc(CNS(=O)(=O)c2cc(-c3cc(C)no3)ccc2OC)cc1OC,4.24
10,Clc1ccc2nc(C3CCN(Cc4nnnn4C4CCCCC4)CC3)[nH]c2c1,-16.2
11,O=C(O)CC(c1cccc([N+](=O)[O-])c1)N1Cc2ccccc2C1=O (stereo not drawn),9.88
12,CC(C)CC(=O)Nc1ccc(-c2nnn(CC(=O)NCc3ccco3)n2)cc1,11.3
13,O=C(c1ccccc1)C(Nc1ccccn1)c1ccccc1 (stereo not drawn),6.7
14,CCCCOc1ccc(NC(=O)C2CC=CCC2C(=O)O)cc1 (stereo not drawn),14.3
15,COc1ccc2c(=O)c(N3C(=O)c4ccccc4C3=O)coc2c1,5.81
16,Cc1nc(SCC(=O)NCc2ccccc2)c2oc3ccccc3c2n1,-3.38
17,S=C(NC1CCCCC1)NN(c1ccccc1)c1ccccc1,7.06
18,CCCCN(CC)CCNC(=O)CCNC(=O)Cn1ccc2ccccc2c1=O,13.5
19,O=C(COc1ccc2c(-c3ccccc3)cc(=O)oc2c1)NCCCN1CCOCC1,6.88

# — PMC4336329 (PLoS ONE, 2015)
